Test results reported in the supplement of paper PMC11417369.
± gives the standard deviation of the averaged measurements. This is one part of the list.

The sequences below were run on PfAP2-LT AP2 domain (GST-tagged) (assay: gcPBM binding intensity (ln(normalized median fluorescence intensity)); higher = stronger DNA binding).
Method in brief: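 In this array assay, P. falciparum DNA-binding domains with a GST tag, expressed in E. coli, were applied for 1 h to primer-extended double-stranded 36-bp intergenic genomic probes and negative controls on an Agilent 4 × 180k array. Bound protein was visualised with Alexa488 anti-GST antibody at 488 nm. Binding intensity is the highest Masliner-normalised natural-log median intensity across replicate spots of either probe orientation.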

| Sequence | gcPBM binding intensity (ln) |
| --- | --- |
| ATATATATATGTATATGTACATATATATACACATAT [XGTACX_site140] | 9.1 ± 0.28 |
| TAAATATATTTATATTGTACATTTATGTTGATACCA [XGTACX_site228] | 8.61 ± 0.43 |
| TATATATATAATATATGTACTGATATGCTATTTACT [XGTACX_site841] | 8.86 ± 0.42 |
| ATATTTACCACTGTATGTACATATATAAAATATATC [XGTACX_site6373] | 8.91 ± 0.35 |
| TTTTGTGAATTTTAGATTTTTTAATACAAGAATATT [CACACA_negctrl_site606] | 8.16 ± 0.48 |
| ATTTAATTTATTATGTGTACTTATTTAATTAAATTA [XGTACX_site3171] | 8.58 ± 0.44 |
| CTGATATATAGATGTAGTACATAAAAATGACGAATT [XGTACX_site5612] | 8.99 ± 0.47 |
| TTATATATTTATAAATGTACATATAATTTTTTTATA [XGTACX_site4696] | 8.4 ± 0.44 |
| CATATAATTATTGAAAGTACATACAAATAAAAAGAT [XGTACX_site6535] | 9.06 ± 0.44 |
| ATATTTTTATTTAAATCACATCATTTTGTTTATTTG [CACACA_negctrl_site1056] | 8.74 ± 0.54 |
| AAAAAAATAAAATGTTCACACATTTCACAATTACTT [CACACA_site4859] | 8.81 ± 0.51 |
| TGAGCACAAATACAGGTGCATATAAAATATATGACG | 9.04 ± 0.49 |
| AGAGGCCAGCTTTCTCTTCTAAACATGTACAAAAAT [GTGCAC_negctrl_site98] | 8.57 ± 0.47 |
| TATATATAAAACATATGTACATATATATATATATAT [XGTACX_site419] | 9.31 ± 0.54 |
| AATAGTTAAATGTACACACTAACTACATGGAATATA [CACACA_site3262] | 9.03 ± 0.4 |
| ACATGAAACTATAAACGTACATACATACATATATAT [XGTACX_site5011] | 9.14 ± 0.3 |
| ATATTTTATAATTTTACACACCATATAAAATAATTC [CACACA_site2797] | 8.71 ± 0.47 |
| AAGTAAAAAAATAGCACACACACAAAAACACCCACA [CACACA_site1291] | 9.92 ± 0.16 |
| ATATATATATAGTGCACACATATAAAATATATATAA [CACACA_site2745] | 9.24 ± 0.32 |

| Sequence | gcPBM binding intensity (ln) |
| --- | --- |
| TTTACAGATACTTGCTCACACATATGTATAAAAATA [CACACA_site4928] | 8.68 ± 0.33 |
| TATAATATATATAGGAGTACGTATGTATATTTATAA [XGTACX_site3521] | 8.87 ± 0.37 |
| CACTAATAGTGGATTACACACATATATATGTATATA [CACACA_site2531] | 9.01 ± 0.35 |
| CGCGAAGTAGCATTCACACACAGCAAAATATATATA [CACACA_site3495] | 9.36 ± 0.52 |
| ACTTACACATTTATTACACACATAAAGGAAAATTTT [CACACA_site1356] | 8.99 ± 0.42 |
| ATATTTAAATGGATCACACATATATATATATATATA [CACACA_site5255] | 9.66 ± 0.11 |
| TTAAAAAATAACAAGGTGCAAATAGGTTTATAAAAT | 8.94 ± 0.52 |
| TTTTTAACATTTAAATGTACATGTTACAATTTAAAG [XGTACX_site8789] | 8.34 ± 0.39 |
| TACTAAAACCCATACACACACATATATATAGTACCA [CACACA_site3184] | 9.56 ± 0.26 |
| ACAGCATAATCATGCTGTACATTATTTTCTTAAGTA [XGTACX_site8456] | 8.47 ± 0.39 |
| TTTTTATTTTTATACATATAATATATTATGATTAAA [CACACA_negctrl_site214] | 8.28 ± 0.51 |
| AGAGACTTAGAAAACACACATACATAAGATAATTTA [CACACA_site2377] | 8.96 ± 0.47 |
| TGCAAAAAATTCCACACACACACACGCATATAAATA [CACACA_site6696] | 10 ± 0.3 |
| AAAATAGCTGTATAGAGTACATATAAATAATGTTGT [XGTACX_site5692] | 8.93 ± 0.45 |
| TAAAATAAAAGTGAAACACACAGTATTTTACAACAT [CACACA_site3811] | 8.89 ± 0.53 |
| CATTTTTCTATATGTGCATGTAAGATAAGAATAATT [TGCATGCA_site107] | 8.48 ± 0.3 |
| TCATATAATATTTATATGCACACTTTTCTATATATA [CACACA_site4075] | 8.98 ± 0.38 |
| TTTCGTCATTTTGTTTTTAATTCTACAATTTAGTTA [XGTACX_negctrl_site286] | 8.7 ± 0.47 |
| TTTTGAAGAAAATTCTTTTTTTTTTTTTTTTGTAAA [CACACA_negctrl_site102] | 7.76 ± 0.65 |

| Sequence | gcPBM binding intensity (ln) |
| --- | --- |
| CCACTTTTTGAAGACACACACAAAAAAAAAAAAAAA [CACACA_site2551] | 8.79 ± 0.41 |
| ATATAATGACAAGTATAAGTATCACAAAGAAATAAA [CACACA_negctrl_site1403] | 8.85 ± 0.55 |
| ATAACAATTATTTGTCGACACACGTATATGTTATTT [CACACA_site1766] | 9.41 ± 0.38 |
| CAAGCTTTTTCCTTTACACACATTAATTATATATAT [CACACA_site1423] | 9.12 ± 0.33 |
| TATATTAAACTTTGCACACATAATTTAACTACAAAG [CACACA_site3441] | 8.97 ± 0.4 |
| AATCATTTATTGATGGTGCAATATACCATCTAATGA [GTGCAC_site9440] | 8.49 ± 0.41 |
| ATATATATATATATATGTACTTAAAAAATATATACA [XGTACX_site8952] | 9.065 ± 0.0071 |
| AAAAAAAAAAAAAAAAAAAAAAAAAAAATACGAAAG [GTGCAC_negctrl_site729] | 8.74 ± 0.4 |
| CTTTTTAATTAATACACACACACACGGATATAAATA [CACACA_site7145] | 9.63 ± 0.16 |
| TATTTTTTTTGTGTGTGTCCTCATGTAATACTGCAA [XGTACX_site1380] | 9.36 ± 0.56 |
| CATAATACATATAACACACACAATTATACATAAAAT [CACACA_site3233] | 9.56 ± 0.36 |
| AAAAAAAAAAAACACACACACACACCCAAATATATA [CACACA_site150] | 10.22 ± 0.028 |
| TAAAAATGGAAACACACACACATAAATATATTTTAT [CACACA_site2513] | 9.71 ± 0.25 |
| TAACCACAATTTTAATGTACATATATATTTATATAT [XGTACX_site8968] | 8.72 ± 0.56 |
| TATATACATATATATATATGTATAGATAGATACATT [CACACA_negctrl_site1511] | 8.8 ± 0.36 |
| TTTTGAAAAAATTTTTATAAAAGAATAAAATTATTA [XGTACX_negctrl_site570] | 7.92 ± 0.42 |
| AATATTTTACAATACACATGCAAATAATATTCTAAA [TGCATGCA_site618] | 8.61 ± 0.38 |
| ATATTATTTATGTATGCATGCGGCGAAATGGGCTTG [TGCATGCA_site28] | 9.06 ± 0.29 |
